This is one part of the list.
Key:
Experiment in all cases: glycan array binding signal (z-score within array); higher = stronger binding
Details in all cases: glycan notation: IUPAC condensed, linker removed
[1] = target: Gal(b1-4)GlcNAc(b1-3)Gal(b1-4)GlcNAc(b1-3)Gal(b1-4)GlcNAc(b1-3)Gal(b1-4)GlcNAc(b1-2)Man(a1-3)[Gal(b1-4)GlcNAc(b1-3)Gal(b1-4)GlcNAc(b1-3)Gal(b1-4)GlcNAc(b1-3)Gal(b1-4)GlcNAc(b1-2)Man(a1-6)]Man(b1-4)GlcNAc(b1-4)[Fuc(a1-6)]GlcNAc
In short: (§1)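 The binding signal is a Z-score computed within each array. Data were drawn from 3228 arrays in the Consortium for Functional Glycomics database, restricted to those with a known protein sequence. Scores were averaged over arrays of the same protein sequence at different concentrations or buffers, and over linkers, and negative values can be taken as non-binding.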

[2] = target: Gal(b1-4)GlcNAc(b1-3)Gal(b1-4)GlcNAc(b1-3)Gal(b1-4)GlcNAc(b1-3)Gal(b1-4)GlcNAc(b1-2)[Gal(b1-4)GlcNAc(b1-3)Gal(b1-4)GlcNAc(b1-3)Gal(b1-4)GlcNAc(b1-3)Gal(b1-4)GlcNAc(b1-6)]Man(a1-6)[Gal(b1-4)GlcNAc(b1-3)Gal(b1-4)GlcNAc(b1-3)Gal(b1-4)GlcNAc(b1-3)Gal(b1-4)GlcNAc(b1-2)Man(a1-3)]Man(b1-4)GlcNAc(b1-4)[Fuc(a1-6)]GlcNAc
In short: as §1

[3] = target: Gal(b1-4)GlcNAc(b1-3)Gal(b1-4)GlcNAc(b1-3)Gal(b1-4)GlcNAc(b1-3)Gal(b1-4)GlcNAc(b1-3)Gal(b1-4)GlcNAc(b1-2)Man(a1-3)[Gal(b1-4)GlcNAc(b1-3)Gal(b1-4)GlcNAc(b1-3)Gal(b1-4)GlcNAc(b1-3)Gal(b1-4)GlcNAc(b1-3)Gal(b1-4)GlcNAc(b1-2)Man(a1-6)]Man(b1-4)GlcNAc(b1-4)GlcNAc
In short: as §1

[4] = target: Gal(b1-4)GlcNAc(b1-3)Gal(b1-4)GlcNAc(b1-3)Gal(b1-4)GlcNAc(b1-3)Gal(b1-4)GlcNAc(b1-3)Gal(b1-4)GlcNAc(b1-2)Man(a1-3)[Gal(b1-4)GlcNAc(b1-3)Gal(b1-4)GlcNAc(b1-3)Gal(b1-4)GlcNAc(b1-3)Gal(b1-4)GlcNAc(b1-3)Gal(b1-4)GlcNAc(b1-2)Man(a1-6)]Man(b1-4)GlcNAc(b1-4)[Fuc(a1-6)]GlcNAc
In short: as §1

[5] = target: Gal(b1-4)GlcNAc(b1-3)Gal(b1-4)GlcNAc(b1-3)Gal(b1-4)GlcNAc(b1-3)Gal(b1-4)GlcNAc(b1-3)Gal(b1-4)GlcNAc(b1-2)[Gal(b1-4)GlcNAc(b1-3)Gal(b1-4)GlcNAc(b1-3)Gal(b1-4)GlcNAc(b1-3)Gal(b1-4)GlcNAc(b1-3)Gal(b1-4)GlcNAc(b1-6)]Man(a1-6)[Gal(b1-4)GlcNAc(b1-3)Gal(b1-4)GlcNAc(b1-3)Gal(b1-4)GlcNAc(b1-3)Gal(b1-4)GlcNAc(b1-3)Gal(b1-4)GlcNAc(b1-2)Man(a1-3)]Man(b1-4)GlcNAc(b1-4)[Fuc(a1-6)]GlcNAc
In short: as §1

[6] = target: Gal(b1-4)GlcNAc(b1-3)Gal(b1-4)GlcNAc(b1-3)Gal(b1-4)GlcNAc(b1-3)Gal(b1-4)GlcNAc(b1-3)Gal(b1-4)GlcNAc(b1-3)Gal(b1-4)GlcNAc(b1-2)Man(a1-3)[Gal(b1-4)GlcNAc(b1-3)Gal(b1-4)GlcNAc(b1-3)Gal(b1-4)GlcNAc(b1-3)Gal(b1-4)GlcNAc(b1-3)Gal(b1-4)GlcNAc(b1-3)Gal(b1-4)GlcNAc(b1-2)Man(a1-6)]Man(b1-4)GlcNAc(b1-4)GlcNAc
In short: as §1

[7] = target: Gal(b1-4)GlcNAc(b1-3)Gal(b1-4)GlcNAc(b1-3)GalNAc
In short: as §1

[8] = target: Gal(b1-4)GlcNAc(b1-3)Gal(b1-4)GlcNAc(b1-3)[Gal(b1-4)GlcNAc(b1-3)Gal(b1-4)GlcNAc(b1-6)]GalNAc
In short: as §1

[9] = target: Gal(b1-4)GlcNAc(b1-3)Gal(b1-4)GlcNAc(b1-6)[Gal(b1-3)]GalNAc
In short: as §1

[10] = target: Gal(b1-4)GlcNAc(b1-3)Gal(b1-4)[Fuc(a1-3)GlcNAc(b1-6)]Gal(b1-4)Glc
In short: as §1

[11] = target: Gal(b1-4)GlcNAc(b1-3)Gal(b1-4)[Fuc(a1-3)]GlcNAc(b1-3)Gal(b1-4)[Fuc(a1-3)]GlcNAc
In short: as §1

[12] = target: Gal(b1-4)GlcNAc(b1-3)GalNAc
In short: as §1

[13] = target: Gal(b1-4)GlcNAc(b1-3)[Fuc(a1-3)GlcNAc(b1-6)]Gal(b1-4)Glc
In short: as §1

[14] = target: Gal(b1-4)GlcNAc(b1-3)[Gal(b1-4)GlcNAc(b1-6)]Gal(b1-4)GlcNAc
In short: as §1

[15] = target: Gal(b1-4)GlcNAc(b1-3)[Gal(b1-4)GlcNAc(b1-6)]GalNAc
In short: as §1

[16] = target: Gal(b1-4)GlcNAc(b1-3)[GlcNAc(b1-6)]Gal(b1-4)GlcNAc
In short: as §1

[17] = target: Gal(b1-4)GlcNAc(b1-6)Gal(b1-4)GlcNAc
In short: as §1

[18] = target: Gal(b1-4)GlcNAc(b1-6)GalNAc
In short: as §1

[19] = target: Gal(b1-4)GlcNAc(b1-6)[Gal(b1-3)]GalNAc
In short: as §1

[20] = target: Gal(b1-4)GlcNAc(b1-6)[Gal(b1-4)GlcNAc(b1-3)]GalNAc
In short: as §1

Gal(b1-4)GlcNAc6P = target: Gal(b1-4)GlcNAc6P
In short: as §1

Gal(b1-6)Gal = target: Gal(b1-6)Gal
In short: as §1

Gal3S(b1-3)GalNAc = target: Gal3S(b1-3)GalNAc
In short: as §1

Gal3S(b1-3)GlcNAc = target: Gal3S(b1-3)GlcNAc
In short: as §1

[21] = target: Gal3S(b1-3)[Fuc(a1-4)]GlcNAc
In short: as §1

Gal3S(b1-4)Glc = target: Gal3S(b1-4)Glc
In short: as §1

Gal3S(b1-4)Glc6S = target: Gal3S(b1-4)Glc6S
In short: as §1

Gal3S(b1-4)GlcNAc = target: Gal3S(b1-4)GlcNAc
In short: as §1

Gal3S(b1-4)GlcNAc6S = target: Gal3S(b1-4)GlcNAc6S
In short: as §1

[22] = target: Gal3S(b1-4)[Fuc(a1-3)]Glc
In short: as §1

[23] = target: Gal3S(b1-4)[Fuc(a1-3)]Glc6S
In short: as §1

[24] = target: Gal3S(b1-4)[Fuc(a1-3)]GlcNAc
In short: as §1

[25] = target: Gal3S(b1-4)[Fuc(a1-3)]GlcNAc6S
In short: as §1

Gal3S4S(b1-4)GlcNAc = target: Gal3S4S(b1-4)GlcNAc
In short: as §1

Gal3S6S(b1-4)GlcNAc = target: Gal3S6S(b1-4)GlcNAc
In short: as §1

Gal3S6S(b1-4)GlcNAc6S = target: Gal3S6S(b1-4)GlcNAc6S
In short: as §1

Gal4S(b1-4)GlcNAc = target: Gal4S(b1-4)GlcNAc
In short: as §1

Gal4S6S(b1-4)GlcNAc = target: Gal4S6S(b1-4)GlcNAc
In short: as §1

Gal6P(b1-4)GlcNAc = target: Gal6P(b1-4)GlcNAc
In short: as §1

Gal6S(b1-3)GlcNAc = target: Gal6S(b1-3)GlcNAc
In short: as §1

Gal6S(b1-3)GlcNAc6S = target: Gal6S(b1-3)GlcNAc6S
In short: as §1

Gal6S(b1-4)Glc = target: Gal6S(b1-4)Glc
In short: as §1

Gal6S(b1-4)Glc6S = target: Gal6S(b1-4)Glc6S
In short: as §1

Gal6S(b1-4)GlcNAc = target: Gal6S(b1-4)GlcNAc
In short: as §1

Gal6S(b1-4)GlcNAc6S = target: Gal6S(b1-4)GlcNAc6S
In short: as §1

B1: Gal 4 (Mus musculus), P56470 (protein)
chain: MAYVPAPGYQPTYNPTLPYYQPIPGGLNVGMSVYIQGVASEHMKRFFVNFVVGQDPGSDVAFHFNPRFDGWDKVVFNTLQGGKWGSEERKRSMPFKKGAAFELVFIVLAEHYKVVVNGNPFYEYGHRLPLQMVTHLQVDGDLQLQSINFIGGQPLRPQGPPMMPPYPGPGHCHQQLNSLPTMEGPPTFNPPVPYFGRLQGGLTARRTIIIKGYVPPTGKSFAINFKVGSSGDIALHINPRMGNGTVVRNSLLNGSWGSEEKKITHNPFGPGQFFDLSIRCGLDRFKVYANGQHLFDFAHRLSAFQRVDTLEIQGDVTLSYVQI
glycan array binding signal (z-score) [1]: -0.161 | glycan array binding signal (z-score) [2]: -0.148 | glycan array binding signal (z-score) [3]: -0.202 | glycan array binding signal (z-score) [4]: -0.281 | glycan array binding signal (z-score) [5]: -0.171 | glycan array binding signal (z-score) [6]: -0.147 | glycan array binding signal (z-score) [7]: -0.195 | glycan array binding signal (z-score) [8]: -0.265 | glycan array binding signal (z-score) [9]: -0.261 | glycan array binding signal (z-score) [10]: -0.199 | glycan array binding signal (z-score) [11]: -0.232 | glycan array binding signal (z-score) [12]: -0.222 | glycan array binding signal (z-score) [13]: -0.327 | glycan array binding signal (z-score) [14]: -0.207 | glycan array binding signal (z-score) [15]: -0.182 | glycan array binding signal (z-score) [16]: -0.225 | glycan array binding signal (z-score) [17]: -0.22 | glycan array binding signal (z-score) [18]: -0.252 | glycan array binding signal (z-score) [19]: -0.217 | glycan array binding signal (z-score) [20]: -0.23 | glycan array binding signal (z-score) (Gal(b1-4)GlcNAc6P): -0.171 | glycan array binding signal (z-score) (Gal(b1-6)Gal): -0.209 | glycan array binding signal (z-score) (Gal3S(b1-3)GalNAc): 0.335 | glycan array binding signal (z-score) (Gal3S(b1-3)GlcNAc): 0.334 | glycan array binding signal (z-score) [21]: -0.25 | glycan array binding signal (z-score) (Gal3S(b1-4)Glc): -0.044 | glycan array binding signal (z-score) (Gal3S(b1-4)Glc6S): 1.02 | glycan array binding signal (z-score) (Gal3S(b1-4)GlcNAc): -0.156 | glycan array binding signal (z-score) (Gal3S(b1-4)GlcNAc6S): -0.175 | glycan array binding signal (z-score) [22]: -0.198 | glycan array binding signal (z-score) [23]: -0.18 | glycan array binding signal (z-score) [24]: -0.18 | glycan array binding signal (z-score) [25]: 1.81 | glycan array binding signal (z-score) (Gal3S4S(b1-4)GlcNAc): -0.238 | glycan array binding signal (z-score) (Gal3S6S(b1-4)GlcNAc): -0.191 | glycan array binding signal (z-score) (Gal3S6S(b1-4)GlcNAc6S): -0.184 | glycan array binding signal (z-score) (Gal4S(b1-4)GlcNAc): -0.209 | glycan array binding signal (z-score) (Gal4S6S(b1-4)GlcNAc): -0.236 | glycan array binding signal (z-score) (Gal6P(b1-4)GlcNAc): -0.286 | glycan array binding signal (z-score) (Gal6S(b1-3)GlcNAc): -0.247 | glycan array binding signal (z-score) (Gal6S(b1-3)GlcNAc6S): -0.2 | glycan array binding signal (z-score) (Gal6S(b1-4)Glc): -0.21 | glycan array binding signal (z-score) (Gal6S(b1-4)Glc6S): -0.179 | glycan array binding signal (z-score) (Gal6S(b1-4)GlcNAc): -0.223 | glycan array binding signal (z-score) (Gal6S(b1-4)GlcNAc6S): -0.215

From the supplement of paper PMC8728848
